Results taken from the supplement of paper PMC9174493.
The list shows a part of the results. Single values of this set are uncertain. Values with irradiation are relative to irradiated vehicle.

Tests used:
A549-Dual [1] = test: NF-kB reporter (SEAP) activity, viability-corrected, relative to vehicle (fold change vs vehicle); higher = more activation of STING-IRF / NF-kB immune response reporter
A549-Dual [2] = test: ISRE reporter (Lucia luciferase) activity, viability-corrected, relative to vehicle (fold change vs vehicle); higher = more activation of STING-IRF / NF-kB immune response reporter
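For NF-kB reporter (SEAP) activity, viability-corrected, relative to vehicle in this document: viability correction based on the alamar blue assay, with concentrations leaving 10% survival or less dropped.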

| Structure (SMILES) | NF-kB reporter (A549-Dual [1]; 0.1 µM, irradiation: 8 Gy/4 fr) | NF-kB reporter (A549-Dual [1]; 0.1 µM, irradiation: none) | NF-kB reporter (A549-Dual [1]; 0.3 µM, irradiation: 8 Gy/4 fr) | NF-kB reporter (A549-Dual [1]; 0.3 µM, irradiation: none) | NF-kB reporter (A549-Dual [1]; 1 µM, irradiation: 8 Gy/4 fr) | NF-kB reporter (A549-Dual [1]; 1 µM, irradiation: none) | NF-kB reporter (A549-Dual [1]; 3 µM, irradiation: 8 Gy/4 fr) | NF-kB reporter (A549-Dual [1]; 3 µM, irradiation: none) | NF-kB reporter (A549-Dual [1]; 10 µM, irradiation: 8 Gy/4 fr) | NF-kB reporter (A549-Dual [1]; 10 µM, irradiation: none) | ISRE reporter (A549-Dual [2]; 0.1 µM, irradiation: 8 Gy/4 fr) | ISRE reporter (A549-Dual [2]; 0.1 µM, irradiation: none) | ISRE reporter (A549-Dual [2]; 0.3 µM, irradiation: 8 Gy/4 fr) | ISRE reporter (A549-Dual [2]; 0.3 µM, irradiation: none) | ISRE reporter (A549-Dual [2]; 1 µM, irradiation: 8 Gy/4 fr) | ISRE reporter (A549-Dual [2]; 1 µM, irradiation: none) | ISRE reporter (A549-Dual [2]; 3 µM, irradiation: 8 Gy/4 fr) | ISRE reporter (A549-Dual [2]; 3 µM, irradiation: none) | ISRE reporter (A549-Dual [2]; 10 µM, irradiation: 8 Gy/4 fr) | ISRE reporter (A549-Dual [2]; 10 µM, irradiation: none) |
| --- | --- | --- | --- | --- | --- | --- | --- | --- | --- | --- | --- | --- | --- | --- | --- | --- | --- | --- | --- | --- |
| Cc1cn(-c2cc(NC(=O)c3ccc(C)c(Nc4nccc(-c5cccnc5)n4)c3)cc(C(F)(F)F)c2)cn1.Cl [Nilotinib hydrochloride] | 1.18 | 1.14 | 0.917 | 1.11 | 0.855 | 1.57 | 0.845 | 1.18 | 1.58 | 1.8 | 1.04 | 1.34 | 1.05 | 1.08 | 0.878 | 1.21 | 0.924 | 0.926 | 0.778 | 2.78 |
| Cc1nc(Nc2ncc(C(=O)Nc3c(C)cccc3Cl)s2)cc(N2CCN(CCO)CC2)n1.O [Dasatinib Monohydrate] | 0.903 | 0.91 | 0.84 | 0.993 | 0.803 | 0.956 | 0.685 | 1.11 | 0.714 | 0.908 | 0.603 | 0.403 | 0.199 | 0.447 | 0.223 | 0.438 | 0.18 | 0.355 | 0.179 | 0.402 |
| CC#CCn1c(N2CCCC(N)C2)nc2c1c(=O)n(Cc1nc(C)c3ccccc3n1)c(=O)n2C (stereo not given) [Linagliptin] | 0.933 | 1.13 | 1.01 | 0.997 | 1.03 | 1.45 | 0.906 | 1.1 | 0.97 | 1.09 | 1.03 | 1.13 | 1.16 | 0.978 | 1.07 | 1.08 | 1.19 | 0.903 | 1.1 | 1.11 |
| CN1C(C(=O)Nc2ccccn2)=C(O)c2ccccc2S1(=O)=O [Piroxicam] | 0.874 | 1.49 | 1.02 | 1.31 | 1.2 | 1.03 | 1.4 | 1.06 | 1.18 | 0.936 | 0.952 | 0.773 | 0.87 | 0.782 | 0.8 | 0.803 | 0.884 | 1.01 | 0.896 | 0.973 |
| O=C(O)C1OC(Oc2cc3oc(-c4ccccc4)cc(=O)c3c(O)c2O)C(O)C(O)C1O (stereo not given) [Baicalin] | 1.05 | 1.25 | 1.11 | 1.19 | 1.17 | 1.01 | 1.35 | 1.2 | 0.843 | 1.27 | 1.09 | 1.08 | 0.897 | 1.08 | 0.868 | 0.861 | 0.774 | 0.728 | 0.664 | 0.708 |
| CC(=O)OCC(=O)C1(O)C(C)CC2C3CCC4=CC(=O)C=CC4(C)C3(F)C(O)CC21C (stereo not given) [Dexamethasone Acetate] | 0.629 | 0.871 | 0.653 | 1.07 | 1.04 | 0.74 | 0.872 | 0.843 | 0.523 | 0.726 | 0.0547 | 0.221 | 0.0462 | 0.251 | 0.0445 | 0.181 | 0.048 | 0.236 | 0.0551 | 0.338 |
| CC(=O)OC1(C(C)=O)CCC2C3C=C(C)C4=CC(=O)CCC4(C)C3CCC21C (stereo not given) [Megestrol Acetate] | 0.609 | 0.88 | 0.589 | 0.959 | 0.511 | 0.838 | 0.462 | 0.744 | 0.498 | 0.917 | 0.403 | 0.529 | 0.348 | 0.538 | 0.244 | 0.409 | 0.182 | 0.321 | 0.166 | 0.423 |
| O=C([O-])c1cc(N=Nc2ccc(O)c(C(=O)[O-])c2)ccc1O.[Na+].[Na+] [Olsalazine Sodium] | 1.36 | 0.834 | 1.41 | 0.779 | 1.1 | 0.937 | 1.05 | 0.988 | 0.944 | 0.766 | 0.961 | 0.758 | 0.84 | 0.725 | 0.731 | 0.73 | 0.804 | 0.975 | 0.617 | 0.583 |
| O=C1CCC(N2C(=O)c3ccccc3C2=O)C(=O)N1 (stereo not given) [Thalidomide] | 1.12 | 0.955 | 1.1 | 1.06 | 1.13 | 0.959 | 1.3 | 0.998 | 0.811 | 0.939 | 1.09 | 0.934 | 0.912 | 0.886 | 0.982 | 0.84 | 0.824 | 0.929 | 0.84 | 0.904 |
| CC(C)Cc1ccc(C(C)C(=O)OCc2ccccn2)cc1 (stereo not given) [Ibuprofen piconol] | 1.09 | 1 | 0.937 | 0.93 | 1.03 | 0.83 | 1.17 | 0.894 | 0.843 | 1.16 | 1.09 | 0.733 | 0.909 | 0.595 | 0.729 | 0.6 | 0.771 | 0.827 | 0.768 | 0.815 |
| CN(C)CCOC(c1ccc(Cl)cc1)c1ccccn1.O=C(O)/C=C\C(=O)O (stereo not given) [CarbinoxaMine Maleate] | 1.07 | 0.832 | 0.83 | 0.655 | 1.08 | 0.813 | 1.04 | 0.852 | 0.882 | 0.936 | 0.91 | 0.647 | 0.838 | 0.605 | 0.677 | 0.652 | 0.74 | 0.774 | 0.898 | 0.899 |
| CC12CCC3c4ccc(O)cc4CC(CCCCCCCCCS(=O)CCCC(F)(F)C(F)(F)F)C3C1CCC2O (stereo not given) [Fulvestrant] | 0.797 | 1.05 | 0.901 | 1.13 | 0.824 | 1.05 | 0.855 | 0.86 | 0.81 | 0.976 | 0.825 | 0.922 | 1.02 | 1.08 | 0.798 | 1.04 | 0.764 | 1.11 | 0.804 | 1.66 |
| CC1CC2C3CC(F)C4=CC(=O)C=CC4(C)C3(F)C(O)CC2(C)C1(OC(=O)c1ccco1)C(=O)SCF (stereo not given) [fluticasone furoate] | 0.787 | 0.845 | 0.854 | 0.846 | 0.728 | 1.1 | 0.745 | 0.764 | 0.766 | 0.716 | 0.0405 | 0.191 | 0.0518 | 0.155 | 0.0344 | 0.236 | 0.063 | 0.236 | 0.0466 | 0.185 |
| CC(C)Cc1ccc(C(C)C(=O)O)cc1.NCCCCC(N)C(=O)O (stereo not given) [Ibuprofen Lysine] | 1.11 | 0.993 | 0.968 | 0.984 | 1.06 | 0.932 | 0.957 | 1 | 0.94 | 1.08 | 0.901 | 0.849 | 0.815 | 0.623 | 0.764 | 0.758 | 0.86 | 0.836 | 0.81 | 0.796 |
| CC(C)Cn1cnc2c(N)nc3ccccc3c21 [Imiquimod] | 1.24 | 1.05 | 1.22 | 1.44 | 1.14 | 1.45 | 1.07 | 1.31 | 0.919 | 1.01 | 1.08 | 1.37 | 1.13 | 1.17 | 1.17 | 1.45 | 1.14 | 0.926 | 0.904 | 0.834 |
| C=C1C(=O)OC2C1CCC(=C)C1CCC(=C)C12 (stereo not given) [Dehydrocostus Lactone] | 1.26 | 1.49 | 1.12 | 1.71 | 1 | 1.16 | 1.41 | 1.31 | 1.41 | 1.46 | 1.13 | 0.99 | 0.863 | 1.05 | 0.658 | 0.835 | 0.972 | 0.891 | 0.621 | 1.04 |
| NC1CN(c2c(F)cc3c(=O)c(C(=O)O)cn(C4CC4F)c3c2Cl)CC12CC2.NC1CN(c2c(F)cc3c(=O)c(C(=O)O)cn(C4CC4F)c3c2Cl)CC12CC2.O.O.O (stereo not given) [Sitafloxacin Hydrate] | 0.925 | 1.19 | 0.769 | 0.984 | 0.895 | 1.23 | 0.806 | 1.16 | 0.903 | 0.899 | 0.835 | 1.19 | 0.844 | 0.937 | 0.885 | 1.05 | 0.847 | 0.788 | 0.889 | 0.815 |
| NC(CO)(CO)CO.O=C(c1ccccc1)c1ccc2n1CCC2C(=O)O (stereo not given) [Ketorolac tromethamine salt] | 1.2 | 1.4 | 1.39 | 1.18 | 1.43 | 1.18 | 1.51 | 1.04 | 1.26 | 1.1 | 1.15 | 1.21 | 1.22 | 0.902 | 0.98 | 0.885 | 0.998 | 1.07 | 0.953 | 0.837 |
| CC(C(=O)O)c1cccc(C(=O)c2ccccc2)c1 (stereo not given) [Ketoprofen] | 0.93 | 1.49 | 0.897 | 1.04 | 1.31 | 0.871 | 1.48 | 0.942 | 0.942 | 0.781 | 0.934 | 0.753 | 0.879 | 0.818 | 0.875 | 0.772 | 0.932 | 0.942 | 0.743 | 0.752 |
| Cc1ccc(NC(=O)c2ccc(CN3CCN(C)CC3)cc2)cc1Nc1nc(-c2cccnc2)cs1 [Masitinib (AB1010)] | 1.04 | 1.12 | 1.06 | 1.11 | 0.886 | 1.34 | 0.969 | 0.925 | 0.758 | 0.828 | 1.11 | 1.08 | 1.24 | 0.944 | 0.93 | 0.877 | 0.832 | 0.959 | 0.772 | 1.09 |
| Cc1ccc(Nc2c(F)cccc2Cl)c(CC(=O)O)c1 [Lumiracoxib] | 0.898 | 1.24 | 1 | 1.48 | 1.28 | 0.944 | 1.29 | 1.02 | 0.859 | 0.865 | 1.05 | 0.949 | 0.823 | 0.896 | 0.891 | 0.951 | 0.867 | 0.97 | 0.901 | 0.9 |
| CC(C)=CCOc1ccc(/C=C/C(=O)c2ccc(OCC=C(C)C)cc2OCC(=O)O)cc1 [Sofalcone] | 1.05 | 1.17 | 1.07 | 1.18 | 1.27 | 0.986 | 0.972 | 0.938 | 0.663 | 1.02 | 0.899 | 1.06 | 0.889 | 0.846 | 0.939 | 0.819 | 0.805 | 0.898 | 0.754 | 0.936 |
| Nc1ccn(C2OC(CO)C(O)C2O)c(=O)n1 (stereo not given) [Cytarabine] | 0.83 | 1.04 | 0.569 | 1.11 | 0.622 | 1.26 | 0.899 | 1.29 | 1.09 | 1.35 | 0.792 | 2.55 | 0.444 | 2.21 | 0.478 | 2.34 | 0.491 | 2.23 | 0.494 | 1.8 |
| CC(C(=O)O)c1ccc2c(c1)Cc1cccnc1O2 (stereo not given) [Pranoprofen] | 0.591 | 0.556 | 0.682 | 0.497 | 0.611 | 0.526 | 0.572 | 0.591 | 0.575 | 0.708 | 0.797 | 0.761 | 0.701 | 0.645 | 0.676 | 0.928 | 0.755 | 0.898 | 0.771 | 0.851 |
